Experimental data published in the supplement of paper PMC11417369.
The other results are listed elsewhere or left out.

tested on: PfSIP2 AP2 domain 1 (GST-tagged); assay: gcPBM binding intensity (ln(normalized median fluorescence intensity)); higher = stronger DNA binding
Summary of the method: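 An Agilent 4 × 180k array of primer-extended double-stranded 36-bp intergenic genomic probes, with negative controls, was incubated for 1 h with GST-tagged P. falciparum DNA-binding domains expressed in E. coli. Alexa488 anti-GST antibody detected bound protein, scanned at 488 nm. Binding intensity is the highest Masliner-normalised natural-log median intensity across replicate spots of either probe orientation.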

Sequence	gcPBM binding intensity (ln)
ATATTATTATAAAGTGGTACAATAAATGGTATTATA [XGTACX_site391]	7.15
AATATACACCCGTGTACACAAATATTTACAAAACGT [CACACA_site4786]	7.34
GTTACACCAACAAACACACACACACCCACCCACAAA [CACACA_site2427]	7.44
AAAAGGAATGAAAATTCACACAACTATAAATACATA [CACACA_site5337]	6.62
GGTATTACCTGTTTGTTATGTAGATGTTGCTAGGAT [GTGCAC_negctrl_site736]	7.25
TAATTCTTTATAATAACACACATTCATATACAATAA [CACACA_site2499]	6.92
ATACCAATAATATACATACACACATAAAGGTTTATA [CACACA_site314]	7.25
AAGAAAAACTAAAGAGTTCTGTTCATATCTCTTTGG [TGCATGCA_negctrl_site549]	6.39
TATATCAAATTCTAAACATGCACAAAAAACTTATAA [TGCATGCA_site510]	8.61
AAGGAAAAACCATTCGCACACACACCGAATATATAA [CACACA_site8403]	7.03
ACTTAAATAATACATACACACATGTACATACAGAAA [CACACA_site1595]	7.66
TATTTATATAGACACACACACATATATTTATATTTT [CACACA_site7240]	7.04
TTTACATTTAATAAAAGTACTTATTTCATATACATA [XGTACX_site659]	6.92
AAAAAACAAAAACACACACACACATATATATATATA [CACACA_site3654]	9.19
ATCACTAACATGTGTTGTACATAAAATTTGTTTGTT [XGTACX_site2207]	6.98
TTAACTTTTATATAGTGTACAAATAAATGCATACAG [XGTACX_site5958]	7.43
TTATTATTTAACATGTGGACACAAAAATTTAAGGGT [XGTACX_site4638]	7.45
TCTACTACTTAATGGAGTACTAGCTTCATAATATTA [XGTACX_site7030]	6.91
TGAACACAGACAAATACACACAAAAAAAATAAATAA [CACACA_site4298]	7.01
TATTATGTATAAAGAAGTACTTTTTTTTTTTTTTTC [XGTACX_site201]	6.76
GATTATTTAAAATATACATGCGCGCACATATGCATA [TGCATGCA_site630]	8.39
TGCATTTTCCTATTTGCATGCAATTAAAATATAGAA [TGCATGCA_site862]	7.16
ATGTTTTAATGAGGTTTGCACTATATTTTAATGAAC	8.64

Sequence	gcPBM binding intensity (ln)
AACATATATACAGTAACACACACAAAAAAATATGAA [CACACA_site9323]	7.15
TTTTACAATAACAATACACACTATAATATATATATA [CACACA_site4893]	8.76
CATATATATAAATACACACACACACCCCTTATAATT [CACACA_site4064]	7.1
TAGGAGCCGAAACACACACACAAAAAAAAAAAAAAA [CACACA_site1731]	6.87
AAAAGAATTTGAAGTCGTACAATATCTATTATATGA [XGTACX_site8275]	6.93
ATATAATATACTTATTGTACTTATTTAAAATACTAA [XGTACX_site4266]	6.98
AAAAAATGGCTAGTTTGTACACAAAAGTTATTGCAT [XGTACX_site5381]	6.72
AAAAAAAAATAAAAATGTACATATATAATATTATAT [XGTACX_site71]	7.14
TTTCTCAATTCTTAGAGTACATAAATAAAAAAAAAA [XGTACX_site7639]	7.13
AAGATAAAATTATGCACACATACGAATAATTTTAAA [CACACA_site1705]	7.24
GAATATATAAGAACAAATATGGCTTAGAAAAAAAAA [TGCATGCA_negctrl_site451]	6.61
ATAAAAATGGATGAATATAAAAAAAAAAAAATATAT [CACACA_negctrl_site182]	7.03
TACAAAAGTTAAACATGTACTTAATTATATGTTTTT [XGTACX_site2852]	6.84
TCAAGTTTATATTAACTATTTATGAAAAAAAAAAGA [CACACA_negctrl_site902]	6.74
TTACACTAAATATGTTCACACATTTTTTCCATCATA [CACACA_site4647]	6.86
CTAAAAATTTTAATTGCACACCACGTTGGACTATTT [CACACA_site1489]	7
TATAAGGCAATAATAGTGCACTAAGATATATAATGA	10.6
ATATATTACAAATGGAGTACTAAAAATATTCTATAT [XGTACX_site6669]	7.33
TATATATATGGGTTTACACACAATAATGAATTAAAA [CACACA_site915]	7.46
CCCATGCATTTTTGCACACACATATATTTATAAATA [CACACA_site6785]	8.16
CCCACAGACGGACACACACACACATATATATATATA [CACACA_site4352]	9.24
TCTTTATATATATATATATGTGTGAATGTTAAGTAT [XGTACX_negctrl_site135]	7.57
ATTTTTTTTTTTTCCTTACACACATATTTCATTTTA [CACACA_site748]	7.26

Sequence	gcPBM binding intensity (ln)
AAATTGTCTGCATATAGTACATAAATATATTAATAT [XGTACX_site4557]	7.15
ATATATATATATATAGTGCATAATGTTTTAATAGAT	9.54
CTATTAAAAAAATTATGTACACAACGTCTCTATATA [XGTACX_site4813]	7.01
TACATTTTTATTTTTACACACATATATATATATATA [CACACA_site1021]	9.55
GAGTTTATTCTTTTTATACACACCTTATTTGATTAA [CACACA_site735]	7.15
TATAATATATTTATATGTACTTATTTATTTATATAT [XGTACX_site6519]	7.03
TATTATTTTATGAGACATAAAAAAAAAAAAAAAAAA [CACACA_negctrl_site1534]	7.18
AAGTATTATTATAAGACACACATGTATATAAGTATA [CACACA_site1479]	6.94
TTAAGTATTTTACGTACACACTTATAAATGTACAGG [CACACA_site6012]	7.19
TTGCCATTAATTTATACACACACATTTTAATTTTTT [CACACA_site8150]	7.17
TTGTCATTTATAAAATGTACGTGTGTATATATTTAA [XGTACX_site5000]	7.07
TCAATAGTTACTAGTACATGCAAAAATAAACCTATA [TGCATGCA_site85]	7.2
CAAATATATATGTTCACACATATAATTATTGTGAAA [CACACA_site4190]	6.89
AAGAAAATAAAATAAAAAAAAAAATAAAAAAAATAA [TGCATGCA_negctrl_site516]	6.77
TTTTAAAGCATATCATATAAAGAACATGACATAGGA [CACACA_negctrl_site630]	6.9
TTATATTTATGATACACACACGTATATTCACATACA [CACACA_site6354]	7.01
AACATTTTTAAATATATAAAAATATATATATATATA [XGTACX_negctrl_site551]	8.94
GTATGTTTAATTTTAGTGCAATTATAAATATTTTAA [GTGCAC_site9531]	8.26
AATATCATCAAACGCACACATACATAAATATATTAT [CACACA_site2174]	7.24
GTTCTTTCAAGTTATACACACCAAAAAAAAAAAAAA [CACACA_site7435]	7.33
TTTCTTTATTTTTTTTTTTTTTTTTTTCCTTTTTTT [TGCATGCA_negctrl_site231]	6.62
TGTTATATTTGTGCGTGTACACATTTGAAAAAATAT [XGTACX_site3796]	8.1
TGTGCACGCATATACACACACAAATACAATGATAAA [CACACA_site6656]	10.6

Sequence	gcPBM binding intensity (ln)
AACGGGGCCAAGAAATATAAATAATCAAAACAAAAA [XGTACX_negctrl_site320]	7.02
AGTGTGTGTGCGTATAGTACATATACATATATACAC [XGTACX_site6882]	7.15
AAATGAATAAAATTTATTTATAAAAGAAAAATCACA [GTGCAC_negctrl_site225]	6.89
ATAATACAAAATACATGTACAAATATTTTTCATATT [XGTACX_site1721]	7
TAGTACACACAAAATACATGCGGGGTTTAATATTTA [TGCATGCA_site576]	6.82
AATTCTTTCATATATTGTACGTATTCCCATAAAATA [XGTACX_site5923]	7.36
TTTAAATATTTTAACACACTCATATTTAGGTTACAA [CACACA_site5685]	6.98
TTTACATATTTATATACACACTTTTGCGTGTCTGGT [CACACA_site4750]	6.99
TCCATATATATTATGTGTACATATTATATATATAAA [XGTACX_site7525]	7.32
TAATCCATAAGAAGCACACACATATAAATATATTTT [CACACA_site6774]	6.98
GTAATATTATATAGTTGTACTTTTTTTTTATTATAT [XGTACX_site483]	7.18
ATATATAAAATATATTGTACATTAACATATATATTT [XGTACX_site2055]	6.88
AAACTTGACGGACACACACACACATATATAAAAAAA [CACACA_site4577]	7.44
ATATATAAATAAATAGTGCATTTTAATATTTAACGT	9.27
AGTAAAAGAAAGCACACACACATGTATATATGTATG [CACACA_site3858]	6.9
CAATATAAAAAACACACGCACACAAAAAAAAAAAAA [CACACA_site3521]	7.01
AAAAAAAAAATTTTCGTGCACATAAGAAAATTTAAA [GTGCAC_site9788]	9.36
ATAGTATATCAAAATTTGTAAATCATTCTCAATAAA [CACACA_negctrl_site430]	6.67
CATACATACAAACACACACACATATAAATACATACA [CACACA_site4625]	7.3
ACATTGTTGGTGTTAGTGCATTGGTAAATATTATAT	8.5
